The source of these data is the supplement of paper PMC10037445.

Each structure is given as a SMILES string. Values joined by “and” are separate entries in the source; they are usually repeats but may differ in a detail not shown here. Equal values may be shown once. The full ranking holds about 2,900 compounds; the median of “NF-kB SEAP reporter activity, fold change vs agonist alone” is about 0.99, and the highest 2% start at about 2.6. The list shows a part of the results.

For assay [1], the system named is RAW-Dual. Put plainly: NF-kB SEAP reporter activity, fold change vs agonist alone; higher = enhanced NF-kB activity. The conditions noted are these: library stock concentration (final ~1000-fold dilution): 10 mM, cytotoxicity flag (confluency mask): not cytotoxic. The essentials:
(§1)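 Library stock was pin-tooled at 50 nL into 384-well plates of RAW-Dual macrophages (50,000 cells/well, DMEM), followed 1 h later by a PRR agonist, and the cells were kept at 37 °C, 5% CO2. Supernatant collected after 20 hours was read for IRF by QuantiLuc luminescence and for NF-κB by QuantiBlue absorbance at 620 nm. Reporter activity is fold change over agonist-alone wells, and a well counted as cytotoxic when its IncuCyte confluency was below 70% of agonist controls in both mask sets.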

The test system of assay [2] is RAW-Dual. The assay is described as follows: NF-kB SEAP reporter activity, fold change vs agonist alone; cytotoxicity flag (confluency mask): not cytotoxic; higher = enhanced NF-kB activity. The essentials:
as §1

Setting [3] is: agonist: ODN 1826 (TLR9) 0.5 ug/mL.
Setting [4] is: agonist: Pam2CSK4 (TLR2/6) 0.1 ug/mL.
The mark [5] stands for this setting: agonist: Pam3CSK4 (TLR2/1) 0.1 ug/mL.

Take `Cc1c(C)c2c(c(C)c1O)CC[C@@](C)(CCC[C@H](C)CCC[C@H](C)CCCC(C)C)O2`: the “NF-kB SEAP reporter activity” value was 1.62 with RAW-Dual [1] (agonist: Imiquimod (TLR7) […]) and 1.64 in the assay on RAW-Dual [1] (agonist: MPLA (TLR4) […]).

Take `Cc1c(C)c2c(c(C)c1O)CC[C@@](C)(CCC[C@H](C)CCC[C@H](C)CCCC(C)C)O2` (library stock concentration (final ~1000-fold dilution): 10 mM): the “NF-kB SEAP reporter activity” value worked out at 0.915 in the assay on RAW-Dual [2] (agonist: LPS (TLR4) 0.1 ug/mL), 0.932 in the assay with RAW-Dual [2] (setting [3]), 1.1 in the assay on RAW-Dual [2] (setting [4]) and 1.43 with RAW-Dual [2] (setting [5]).

As for `COc1cc2c(cc1OC)CN(CCc1ccc(NC(=O)c3cccc4c(=O)c5cccc(OC)c5[nH]c34)cc1)CC2`, the figures for the “NF-kB SEAP reporter activity” value in the assay on RAW-Dual [1] (agonist: Imiquimod (TLR7) […]) and in the assay with RAW-Dual [1] (agonist: MPLA (TLR4) […]) were 0.954 and 1.02, respectively.

Turning to `COc1cc2c(cc1OC)CN(CCc1ccc(NC(=O)c3cccc4c(=O)c5cccc(OC)c5[nH]c34)cc1)CC2` (library stock concentration (final ~1000-fold dilution): 10 mM), the “NF-kB SEAP reporter activity” value turned out to be 1.25 with RAW-Dual [2] (agonist: LPS (TLR4) 0.1 ug/mL), 0.256 in the assay on RAW-Dual [2] (setting [3]), 1.16 in the assay with RAW-Dual [2] (setting [4]) and 0.826 in the assay on RAW-Dual [2] (setting [5]).

On to `CC(C)(O)CNc1ncc(-c2ccnc(Nc3ccncc3)n2)c(CC2CC2)n1` (library stock concentration (final ~1000-fold dilution): 10 mM), for which the “NF-kB SEAP reporter activity” value in the assay with RAW-Dual [2] (agonist: LPS (TLR4) 0.1 ug/mL) was 4.13; with RAW-Dual [2] (setting [3]), 0.366; with RAW-Dual [2] (setting [4]), 0.814; in the assay on RAW-Dual [2] (setting [5]) it was 1.66.

Take `CC(C)(O)CNc1ncc(-c2ccnc(Nc3ccncc3)n2)c(CC2CC2)n1`: the “NF-kB SEAP reporter activity” value with RAW-Dual [1] (agonist: Imiquimod (TLR7) […]) amounted to 0.914; in the assay with RAW-Dual [1] (agonist: MPLA (TLR4) […]), 2.18.

As to `C=C(C)C1CC=C(C)CC1` (stereo unspecified), the figures for the “NF-kB SEAP reporter activity” value in the assay on RAW-Dual [1] (agonist: Imiquimod (TLR7) […]) and in the assay with RAW-Dual [1] (agonist: MPLA (TLR4) […]) were 0.834 and 1.05, respectively.

With `C=C(C)C1CC=C(C)CC1` (stereo unspecified) (library stock concentration (final ~1000-fold dilution): 10 mM), the “NF-kB SEAP reporter activity” value in the assay with RAW-Dual [2] (agonist: LPS (TLR4) 0.1 ug/mL) worked out at 0.958; in the assay on RAW-Dual [2] (setting [3]) it was 1.01; in the assay with RAW-Dual [2] (setting [4]) it was 0.859; with RAW-Dual [2] (setting [5]) it was 0.83.

Regarding `CC(C)(C)C(O)/C=C/c1ccc2c(c1)OCO2` (stereo unspecified) (library stock concentration (final ~1000-fold dilution): 10 mM), the “NF-kB SEAP reporter activity” value in the assay with RAW-Dual [2] (agonist: LPS (TLR4) 0.1 ug/mL) is 1.13; in the assay on RAW-Dual [2] (setting [3]), 1.05; in the assay with RAW-Dual [2] (setting [4]), 1.05; in the assay on RAW-Dual [2] (setting [5]), 1.33.

Consider `CC(C)(C)C(O)/C=C/c1ccc2c(c1)OCO2` (stereo unspecified), for which the “NF-kB SEAP reporter activity” value with RAW-Dual [1] (agonist: MPLA (TLR4) […]) was determined as 1.25.

Consider `Cc1cc(N2CCOCC2)cc2[nH]c(-c3c(NCC(O)c4cccc(Cl)c4)cc[nH]c3=O)nc12` (stereo unspecified) (library stock concentration (final ~1000-fold dilution): 10 mM), for which, in the assay on RAW-Dual [2] (setting [3]), the “NF-kB SEAP reporter activity” value was determined as 3.16.

Turning to `CC12CC3(O)OC(O1)C1(COC(=O)c4ccccc4)C3CC21OC1OC(COC(=O)c2ccccc2)C(O)C(O)C1O` (stereo unspecified) (library stock concentration (final ~1000-fold dilution): 10 mM), the “NF-kB SEAP reporter activity” value was found to be 0.995 in the assay on RAW-Dual [2] (agonist: LPS (TLR4) 0.1 ug/mL), 0.926 in the assay on RAW-Dual [2] (setting [3]), 1.05 in the assay on RAW-Dual [2] (setting [4]) and 1.21 with RAW-Dual [2] (setting [5]).

Regarding `CC12CC3(O)OC(O1)C1(COC(=O)c4ccccc4)C3CC21OC1OC(COC(=O)c2ccccc2)C(O)C(O)C1O` (stereo unspecified), the “NF-kB SEAP reporter activity” value in the assay on RAW-Dual [1] (agonist: Imiquimod (TLR7) […]) was 0.925; in the assay on RAW-Dual [1] (agonist: MPLA (TLR4) […]) it was 0.987.

Regarding `NC(=O)NO` (library stock concentration (final ~1000-fold dilution): 10 mM), the “NF-kB SEAP reporter activity” value in the assay on RAW-Dual [2] (agonist: LPS (TLR4) 0.1 ug/mL) is 1.09; in the assay with RAW-Dual [2] (setting [3]), 1.15; in the assay on RAW-Dual [2] (setting [4]), 1; with RAW-Dual [2] (setting [5]), 1.04.

Turning to `NC(=O)NO`, the results for the “NF-kB SEAP reporter activity” value in the assay on RAW-Dual [1] (agonist: Imiquimod (TLR7) […]) and with RAW-Dual [1] (agonist: MPLA (TLR4) […]) were 1.07 and 1.03, respectively.

As for `Cl.Cl.O=C1c2c(O)ccc(O)c2C(=O)c2c(NCCNCCO)ccc(NCCNCCO)c21` (library stock concentration (final ~1000-fold dilution): 10 mM), the “NF-kB SEAP reporter activity” value in the assay with RAW-Dual [2] (agonist: LPS (TLR4) 0.1 ug/mL) amounted to 0.336; in the assay on RAW-Dual [2] (setting [3]), 0.963; in the assay with RAW-Dual [2] (setting [4]), 0.174; in the assay with RAW-Dual [2] (setting [5]) it was 0.678.

For the compound `Cl.Cl.O=C1c2c(O)ccc(O)c2C(=O)c2c(NCCNCCO)ccc(NCCNCCO)c21`, the “NF-kB SEAP reporter activity” value in the assay on RAW-Dual [1] (agonist: Imiquimod (TLR7) […]) was determined as 0.906; in the assay on RAW-Dual [1] (agonist: MPLA (TLR4) […]), 0.925.

In the case of `O=C(Nc1ccccc1C(=O)O)c1cc(S(=O)(=O)c2ccccc2)ccc1Cl` (library stock concentration (final ~1000-fold dilution): 10 mM), the “NF-kB SEAP reporter activity” value was determined as 1.19 in the assay on RAW-Dual [2] (agonist: LPS (TLR4) 0.1 ug/mL), 0.999 with RAW-Dual [2] (setting [3]), 1.09 in the assay with RAW-Dual [2] (setting [4]) and 1.13 with RAW-Dual [2] (setting [5]).

Regarding `O=C(Nc1ccccc1C(=O)O)c1cc(S(=O)(=O)c2ccccc2)ccc1Cl`, the figures for the “NF-kB SEAP reporter activity” value in the assay on RAW-Dual [1] (agonist: Imiquimod (TLR7) […]) and in the assay on RAW-Dual [1] (agonist: MPLA (TLR4) […]) were 0.883 and 1.01, respectively.

On to `CC(C)(C)c1ccc(S(=O)(=O)NCc2ccc(C(=O)Nc3cccnc3)cc2)cc1` (library stock concentration (final ~1000-fold dilution): 10 mM), for which the “NF-kB SEAP reporter activity” value with RAW-Dual [2] (agonist: LPS (TLR4) 0.1 ug/mL) amounted to 0.67; in the assay with RAW-Dual [2] (setting [3]), 1.1; in the assay on RAW-Dual [2] (setting [4]) it was 0.834; with RAW-Dual [2] (setting [5]), 0.706.

With `CC(C)(C)c1ccc(S(=O)(=O)NCc2ccc(C(=O)Nc3cccnc3)cc2)cc1`, the results for the “NF-kB SEAP reporter activity” value in the assay with RAW-Dual [1] (agonist: Imiquimod (TLR7) […]) and in the assay on RAW-Dual [1] (agonist: MPLA (TLR4) […]) were 0.865 and 0.908, respectively.

`Cc1ccccc1C(=O)N1CCc2cc(-c3nc(NC(=O)Cc4ccc5c(c4)OCO5)sc3C)ccc21` (library stock concentration (final ~1000-fold dilution): 10 mM): the “NF-kB SEAP reporter activity” value with RAW-Dual [2] (agonist: LPS (TLR4) 0.1 ug/mL) was 1.34 and 1.45; in the assay on RAW-Dual [2] (setting [3]), 0.971 and 0.758; with RAW-Dual [2] (setting [4]), 0.716 and 0.692; in the assay on RAW-Dual [2] (setting [5]), 0.695 and 0.61.

For the compound `COc1c(OC)c2occc2c2oc(=O)ccc12`, the “NF-kB SEAP reporter activity” value was found to be 0.982 with RAW-Dual [1] (agonist: Imiquimod (TLR7) […]) and 1.08 in the assay with RAW-Dual [1] (agonist: MPLA (TLR4) […]).

`COc1c(OC)c2occc2c2oc(=O)ccc12` (library stock concentration (final ~1000-fold dilution): 10 mM): the “NF-kB SEAP reporter activity” value with RAW-Dual [2] (agonist: LPS (TLR4) 0.1 ug/mL) worked out at 0.937; in the assay with RAW-Dual [2] (setting [3]) it was 0.898; in the assay on RAW-Dual [2] (setting [4]), 1.05; in the assay on RAW-Dual [2] (setting [5]) it was 1.1.

Consider `CCCCC(C=O)NC(=O)C(CC(C)C)NC(=O)C(CC(C)C)NC(C)=O` (stereo unspecified) (library stock concentration (final ~1000-fold dilution): 10 mM), for which the “NF-kB SEAP reporter activity” value stood at 0.819 in the assay with RAW-Dual [2] (agonist: LPS (TLR4) 0.1 ug/mL), 1.45 in the assay on RAW-Dual [2] (setting [3]), 0.395 with RAW-Dual [2] (setting [4]) and 1.06 in the assay with RAW-Dual [2] (setting [5]).

For the compound `CCCCC(C=O)NC(=O)C(CC(C)C)NC(=O)C(CC(C)C)NC(C)=O` (stereo unspecified), the “NF-kB SEAP reporter activity” value in the assay with RAW-Dual [1] (agonist: Imiquimod (TLR7) […]) was 1.24; in the assay on RAW-Dual [1] (agonist: MPLA (TLR4) […]), 1.68.
